# Test results: ChEMBL document CHEMBL4888484, “Replenishing the malaria drug discovery pipeline: Screening and hit evaluation of the MMV Hit Generation Library 1 (HGL1) against asexual blood stage Plasmodium falciparum ,using a nano luciferase reporter read-out” (2022)
# In all, about 150,000 compounds went through this assay and about 540 (0.36%) showed an effect of 50% or more. The list shows a part of the results.
# System: Plasmodium falciparum
# Assay: Primary screen in NF54 nanoGlo assay, in single point, at 2uM, 72h; a lower Z score goes with more inhibition
# Format: functional, Erythrocyte
# Settings: timepoint 72 hour
SMILES,% Inhibition,Z score
CS(=O)(=O)c1ccc2nc(NC(=O)c3cc(-n4cnnn4)ccc3Cl)sc2c1,-21%,3.01
CC1CCN(C(=O)c2ccccc2NC(=O)[C@@H]2Cc3ccccc3O2)CC1,-4%,0.53
CNCc1ncc(-c2sccc2C)cn1,-4%,0.62
COc1ccccc1C(C)CNC1CCN(CC2CCCO2)CC1C (stereo unspecified),2%,-0.22
CC(=O)c1ccc(CNC(=O)c2cc(C)oc2C)nc1C,-17%,2.57
CCCn1nc(-c2ccco2)nc1[C@H]1CCCC[C@H]1C(=O)N1CCCC1,-17%,1.68
CC1CCCCC1N(C)C(=O)COC(=O)C1CCC(NC(N)=O)CC1 (stereo unspecified),-13%,1.82
COc1cccc(CN2CCC[C@@]3(CCN(C(=O)c4cc(N)[nH]n4)C3)C2)c1OC,-7%,1.35
CNCC(=O)N[C@@H](C)c1cnc(N(C)C2CCCCC2)nc1C,12%,-1.53
Cc1ccc(NC(=O)c2cnn(CC(F)(F)F)c2)cc1N1CCNC1=O,-9%,1.27
CC(C)c1cc(C(=O)N2CCC[C@H](c3cc(O)ncn3)C2)nc2ncnn12,-19%,2.91
CC[C@H](NC(=O)C(=O)Nc1cnc2ccccc2c1)c1ccccc1O,-12%,2.15
Cc1ccsc1CCNC(=O)[C@H]1CC[C@H](Nc2cnccn2)CC1,-9%,1.12
O=C(C1=COCCO1)N(CCN1CCOCC1)c1nc2ccc(F)cc2s1,-13%,1.61
C/C=C/CN1CCCn2nc(CCC(=O)N3CCN(C)CC3)cc2C1,1%,-0.16
CCN1CCN(C(=O)CCC2CCN(Cc3ccc(OC)cc3F)CC2)CC1,7%,-0.92
O=C(C[C@H]1C(=O)NCCN1C1Cc2ccccc2C1)NCCOCCO,-16%,2.05
Cc1c(CN2CCc3ccccc32)cnn1C,37%,-0.96
CC1=NO[C@](C)(C(=O)N2CCc3[nH]nc(-c4ccccc4F)c3C2)C1,-17%,1.65
CCOc1ccccc1NC(=O)c1c(-c2ccccc2)c(-c2ccccc2)n[nH]c1=O,-4%,0.51
COc1ccnc(NS(=O)(=O)c2ccc3c(c2)CCCC3)c1,2%,-0.38

SMILES,% Inhibition,Z score
O=C1CC(c2ccccc2)N2N=C(N3C(=O)C4CCCCC4C3=O)NC2=N1 (stereo unspecified),5%,-0.48
CNC(=O)CC1CCC(C(F)(F)F)CC1 (stereo unspecified),-3%,0.63
c1ccc([C@@H]2CCCN2Cc2cnn(-c3ccccc3)n2)cc1,-2%,0.22
Cn1cc(N2C[C@@H](c3nc(-c4cccs4)no3)CCC2=O)cn1,-3%,0.47
Cc1c(C(=O)N2CCCCC2)c(S(=O)(=O)N2CCN(C)CC2)c(C)n1C,-7%,1.41
Cc1ccc(NC(=O)CC2CCN(S(=O)(=O)c3ccc(Cl)s3)CC2)cc1,-12%,1.59
C[C@H]1CCN(C(=O)CN(C)C(=O)c2cccs2)CCS1(=O)=O,-8%,1.6
C=CCOc1ccc(C(=O)N[C@H]2CCN(C3CC3)C2=O)cc1,-9%,1.22
O=C1OC[C@@H]2CCN(Cc3ccccn3)Cc3ccc(F)cc3N12,0%,-0.05
COc1ncccc1C(=O)N1C2CCC1CC(F)C2 (stereo unspecified),-5%,0.64
Cc1nccn1C[C@H]1CCCN(C(=O)Cc2cccnc2)C1,-22%,2.37
CN1CCC[C@H](C(=O)NCCc2nc3ccccc3o2)C1,2%,-0.4
CC1CN(C(CNCc2cnn(C)c2)c2cccs2)CCO1 (stereo unspecified),-9%,0.92
CC(C)(C(=O)N1CCn2c(Cc3cccc(F)c3)nnc2C1)n1cc(N)cn1,-3%,0.55
Cc1nn(C)c(N)c1C(=O)N(C)[C@@H](C)c1ccc(-c2ccccc2)cc1,-22%,2.19
C=CCN1C[C@@H](c2nc(COc3ccc(C(C)(C)C)cc3)n[nH]2)CC1=O,-15%,1.63
CCO[C@H]1COC[C@@H]1NS(=O)(=O)c1ccc(-c2c(C)noc2C)s1,-15%,3.09
CCc1ccc(CN2CCCn3nc(CNC(=O)N(C)C)cc3C2)nc1,-14%,1.87
CCCCCN(C(=O)Nc1cnn(CCOC)c1)C(C)C,-1%,0.26
COc1ccc2cc3n(c2c1)C[C@@](C)(C(=O)NC1CCCCCC1)N(CCCN1CCCCC1)C3=O,4%,-0.59
O=C([C@H]1CCCN(C2CCN(c3nc4ccccc4o3)CC2)C1)N1CC=CCC1,-1%,0.14

SMILES,% Inhibition,Z score
Cc1nnc2n1[C@@H](C)CN(C(=O)c1cccc(N(C)C)c1)C2,-7%,1.33
Cc1cccnc1N[C@@]1(C(F)(F)F)N=C(c2ccccc2)N(C2CCCC2)C1=O,-1%,0.07
Cc1ccc(/C(N)=N/NC(=O)OC(C)(C)C)cc1,-8%,0.86
COc1cccc([C@@H]2Cn3nnc(-c4nc(-c5ccc(F)c(Br)c5)no4)c3CO2)c1,-5%,0.54
NC(=O)c1cccc(CNCC2(O)CCCCCC2)c1,-6%,0.87
O=C(C[C@H]1Cc2ccccc2C2(CCN(Cc3cccnc3)CC2)O1)NCC1CC1,-8%,1.07
CN1CCC[C@@]2(CCN(CC(=O)Nc3ccc4c(c3)CCC4)C2)C1,3%,-0.57
CC(C)Cn1cc(C(F)F)c(C(=O)NCc2ccncc2)n1,-8%,0.82
CCC(CC)N[C@H]1CCCc2cccnc21,-9%,1.43
COc1ccc(CNC(=O)c2cnn3c(=O)cc(C)[nH]c23)cc1,-12%,1.55
CC[C@@H]1Oc2ccc(Cl)cc2N(CC(=O)N2CCN(c3cc(=O)n(C)c(=O)n3C)CC2)C1=O,-1%,0.14
Cc1noc2nc(C3CC3)cc(C(=O)N[C@@H]3Cc4ccccc4[C@H]3O)c12,-8%,1.04
COc1ccc([C@H]2C(C(N)=O)=C(C)Nc3nc(C)nn32)cc1OCc1ccccc1,-9%,1.2
Cc1ccc(-c2cc(C(=O)N(Cc3cccs3)[C@H]3CCS(=O)(=O)C3)no2)cc1F,-11%,2.15
O=C(NCC1(Cn2ccnc2)CC1)c1cncc(Cl)c1,-12%,1.48
O=C(Cn1nc(N2CCOCC2)ccc1=O)N1CCN(Cc2ccccc2)CC1,-8%,1.51
CCn1ccnc1CN1CCN(C(=O)c2ccccn2)[C@H]2CS(=O)(=O)C[C@H]21,-15%,1.88
O=C1[C@H]2CN(Cc3ccc(Cl)cc3)C[C@H]2C(=O)N1CCc1ccccc1,0%,0.02
CCn1cc(C(=O)N2C(C)CC(c3ccccc3)C2C)cn1 (stereo unspecified),-13%,1.88
CC(C)CCNC(=O)[C@@H]1CCC(=O)N1C(C)C,6%,-0.92
O=C(NCC1(Cc2ccc(F)cc2)CCCC1O)N1CCC(F)(CO)C1 (stereo unspecified),-4%,0.5

SMILES,% Inhibition,Z score
Cn1nccc1C(=O)N1CCC(F)(c2cccc(Cl)c2)CC1,11%,-1.44
CCN1CCC[C@@H]1CNC(=O)C1CCN(S(=O)(=O)c2ccc3c(ccn3CC)c2)CC1,-13%,1.97
CC[C@H]1CCCCN1C(=O)c1cc(-c2ccc(C3CCCCC3)cc2)on1,-20%,1.78
O=C(Nc1ccc2c(n1)OCCO2)[C@H]1CC[C@@H](C(=O)N2CCOCC2)O1,1%,-0.1
Cc1cnc(C(=O)N(C)Cc2c(C)noc2C)cn1,4%,-0.87
O=C(CCn1cnnn1)N1CCC2(CCC(=O)N(Cc3ccccn3)C2)CC1,-10%,1.21
O=C(NCCCc1ccccc1Cl)c1ccc(CN2CCCC2)cc1,21%,-2.85
NC(=O)c1c(F)cccc1OCc1nnc(C2CC2)o1,-15%,1.54
COc1ccc2c(c1)CCc1c(C(=O)NCc3ccc4c(c3)OCO4)n[nH]c1-2,-11%,2.01
O=C(C1CCN(c2ccc3nncn3n2)CC1)N1CCN(c2ccccn2)CC1,-6%,0.83
Cc1ccc(CNC(=O)c2nc(C)n(C3CCN(C)CC3)c2C)o1,-3%,0.44
Cn1c(=O)c2[nH]c(N3CCN(CCOC(=O)c4cccc(Cl)c4)CC3)nc2n(C)c1=O,-11%,1.7
CN(Cc1nc(-c2ccccc2)cs1)C(=O)c1nc2ccccn2c1F,-2%,0.32
CC(C)CCc1nnc(NCc2cnc3cnccn23)o1,0%,0.03
COC[C@H](C)NC(=O)c1ccc(C)s1,0%,-0.07
Cc1ncsc1CCC(=O)N1CCC[C@H](Nc2ccc3c(c2)OCCO3)C1,8%,-1.02
Cc1c[nH]c([C@H](C)NC(=O)Cc2noc3ccccc23)n1,-14%,1.73
O=C(c1ccoc1)N1CCC(n2ccnn2)CC1,3%,-0.51
C=C[C@H]1OCC[C@@H]1C(=O)Nc1nc2c(s1)CCCC2(C)C,-5%,0.6
CN(C(=O)c1csc2ccccc12)C1(C(N)=O)CCCC1,-15%,1.34
